Measurements published in the supplement of paper PMC4604168 (melanoma cell lines).
The other results are listed elsewhere or left out. Single values are uncertain, as repeats are few or missing.

Tests used:
Assay in all cases: cell count relative to DMSO control; melanoma cells; higher = more viable cells
Details in all cases: library dose: standard library concentration; 72 h
SkMel28 = test system: SkMel28
SkMel2 = test system: SkMel2
SkMel30 = test system: SkMel30
SkMel5 = test system: SkMel5
UACC257 = test system: UACC257
UACC62 = test system: UACC62
WM115 = test system: WM115
WM1716 = test system: WM1716
WM3526 = test system: WM3526
WM1745 = test system: WM1745
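Also: cells treated in 1,536-well plates, then fixed and DAPI-stained, with nuclei counted from automated high-throughput microscope images.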

Structure (SMILES) | cell count (SkMel28) | cell count (SkMel2) | cell count (SkMel30) | cell count (SkMel5) | cell count (UACC257) | cell count (UACC62) | cell count (WM115) | cell count (WM1716) | cell count (WM3526) | cell count (WM1745)
Cn1c(=O)n(-c2ccc(C(C)(C)C#N)cc2)c2c3cc(-c4cnc5ccccc5c4)ccc3ncc21 + COc1cc(N2CCC(N3CCN(C)CC3)CC2)ccc1Nc1ncc(Cl)c(Nc2ccccc2S(=O)(=O)C(C)C)n1 [NVP-TAE684] (first compound 0.02 µM, partner dose 0.4 µM) | 31.4% | 45.7% | 69.6% | 58% | 83.9% | 48% | 56.3% | 61.9% | 45.2% | –
Cn1c(=O)n(-c2ccc(C(C)(C)C#N)cc2)c2c3cc(-c4cnc5ccccc5c4)ccc3ncc21 + O=C(O)C(=O)Nc1sc2c(c1C(=O)O)CCNC2 [TCS401] (first compound 0.02 µM, partner dose 8.33333 µM) | 38.2% | 71.3% | 78.1% | 67.4% | 98.4% | 100% | 68.5% | 60% | 71% | –
Cn1c(=O)n(-c2ccc(C(C)(C)C#N)cc2)c2c3cc(-c4cnc5ccccc5c4)ccc3ncc21 + Cn1cc(/C=C2\C(=O)Nc3cccnc32)c2ccccc21 [GW441756] (first compound 0.02 µM, partner dose 2 µM) | 70.7% | 74.3% | 84.6% | 71.4% | 88.3% | 87.3% | 80.5% | 103% | 79.7% | –
Cc1cn(-c2cc(NC(=O)c3ccc(C)c(Nc4nccc(-c5cccnc5)n4)c3)cc(C(F)(F)F)c2)cn1 [nilotinib] + COc1cc2ncnc(Nc3ccc(Oc4ccccc4)cc3)c2cc1OC [SrcI1] (first compound 1 µM, partner dose 10 µM) | 56.7% | 82.2% | 80.1% | 45.6% | 90.5% | 65.3% | 62.9% | 71.3% | 65.7% | –
COc1ccc(C2=N[C@@H](c3ccc(Cl)cc3)[C@@H](c3ccc(Cl)cc3)N2C(=O)N2CCNC(=O)C2)c(OC(C)C)c1 [Nutlin-3] + Oc1cc(-c2nc(-c3ccccc3)[nH]c2-c2ccncc2)ccc1Cl [L779450] (first compound 0.5 µM, partner dose 1 µM) | 34.5% | 32.2% | 98.4% | 65% | 74.7% | 42.6% | 38.5% | 64.4% | 51.1% | –
Cn1c(=O)n(-c2ccc(C(C)(C)C#N)cc2)c2c3cc(-c4cnc5ccccc5c4)ccc3ncc21 + Cc1cc([N+](=O)[O-])ccc1NS(=O)(=O)c1cc(Cl)ccc1Cl [FH535] (first compound 0.02 µM, partner dose 5 µM) | 41.9% | 50.4% | 69.5% | 56.8% | 74% | 88.4% | 60.6% | 64.8% | 60.5% | –
Cc1cn(-c2cc(NC(=O)c3ccc(C)c(Nc4nccc(-c5cccnc5)n4)c3)cc(C(F)(F)F)c2)cn1 [nilotinib] + CCCCCCCCc1ccc(CCC(N)(CO)CO)cc1 [fingolimod] (first compound 1 µM, partner dose 10 µM) | – | 0.296% | 9.8% | 31.8% | 58.4% | 19.6% | 14.1% | 47% | 26% | 2.27%
Cc1cn(-c2cc(NC(=O)c3ccc(C)c(Nc4nccc(-c5cccnc5)n4)c3)cc(C(F)(F)F)c2)cn1 [nilotinib] + Cn1cc(/C=C2\C(=O)Nc3cccnc32)c2ccccc21 [GW441756] (first compound 1 µM, partner dose 2 µM) | 70.3% | 89.7% | 86.5% | 43.4% | 86.5% | 56.2% | 71.9% | 105% | 64.8% | –
COc1ccc(C2=N[C@@H](c3ccc(Cl)cc3)[C@@H](c3ccc(Cl)cc3)N2C(=O)N2CCNC(=O)C2)c(OC(C)C)c1 [Nutlin-3] + Oc1nc(-c2ccc(C(F)(F)F)cc2)nc2c1CSCC2 [XAV939] (first compound 0.5 µM, partner dose 10 µM) | 71.5% | 95.2% | 105% | 80.2% | 72.8% | 68.9% | 88.3% | 54.2% | 109% | –
Cc1cn(-c2cc(NC(=O)c3ccc(C)c(Nc4nccc(-c5cccnc5)n4)c3)cc(C(F)(F)F)c2)cn1 [nilotinib] + CNC(=O)c1cc(Oc2ccc(NC(=O)Nc3ccc(Cl)c(C(F)(F)F)c3)cc2)ccn1 [sorafenib] (first compound 1 µM, partner dose 2 µM) | – | 111% | 86.7% | 59.9% | 71% | 83.5% | 90.3% | 89.9% | 61.2% | 85.1%
Cc1cn(-c2cc(NC(=O)c3ccc(C)c(Nc4nccc(-c5cccnc5)n4)c3)cc(C(F)(F)F)c2)cn1 [nilotinib] + CCc1ccc(CCOc2ccc(CC3SC(=O)NC3=O)cc2)nc1 [pioglitazone] (first compound 1 µM, partner dose 10 µM) | 95.8% | 119% | 100% | 77% | 123% | 69.3% | 122% | 100% | 108% | –
CC(C)C[C@H](NC(=O)[C@H](Cc1ccccc1)NC(=O)c1cnccn1)B(O)O [Bortezomib] + COc1ccc(-c2ccc3c(N4CCOCC4)nc(N4C[C@@H](C)O[C@@H](C)C4)nc3n2)cc1CO [KU0063794] (first compound 0.005 µM, partner dose 0.1 µM) | 31.5% | 69% | 30.5% | 33.6% | 82.5% | 67.4% | 34.3% | 18.1% | 42.1% | –
CC(C)C[C@H](NC(=O)[C@H](Cc1ccccc1)NC(=O)c1cnccn1)B(O)O [Bortezomib] + CCN(CC)CCCCNc1ncc2cc(-c3cc(OC)cc(OC)c3)c(NC(=O)NC(C)(C)C)nc2n1 [PD173074] (first compound 0.005 µM, partner dose 0.5 µM) | 33.1% | – | 39.5% | 34.1% | 107% | 65.1% | 30.2% | 21.9% | 44% | –
Cc1cn(-c2cc(NC(=O)c3ccc(C)c(Nc4nccc(-c5cccnc5)n4)c3)cc(C(F)(F)F)c2)cn1 [nilotinib] + Cn1cncc1[C@@](N)(c1ccc(Cl)cc1)c1ccc2c(c1)c(-c1cccc(Cl)c1)cc(=O)n2C [tipifarnib] (first compound 1 µM, partner dose 0.05 µM) | 48.7% | 71.2% | 95.9% | 59.9% | 102% | 62.6% | 90% | – | 63.9% | 112%
